Where two headings read alike, the source gives them in different places. These are yes or no findings as the source states them, for the method shown. In cells and extracts the contact can be indirect. Some results given as binding are weak or reduced against the parent protein; the word gives no strength. For part of these data: Where a sequence is shown, tags or fusion partners need not be part of it. Each block holds one molecule with its values, some of them ahead of it.
How the values were obtained:
[1] = target: T1, GST-DEAF1 fusion protein (human) (UniProt O75398); assay: pull-down; GST-DEAF1 on glutathione-Sepharose beads incubated overnight with PC-3 cell lysate; Western blot with an antibody to DNA-PKcs; only the target purified
T1 sequence: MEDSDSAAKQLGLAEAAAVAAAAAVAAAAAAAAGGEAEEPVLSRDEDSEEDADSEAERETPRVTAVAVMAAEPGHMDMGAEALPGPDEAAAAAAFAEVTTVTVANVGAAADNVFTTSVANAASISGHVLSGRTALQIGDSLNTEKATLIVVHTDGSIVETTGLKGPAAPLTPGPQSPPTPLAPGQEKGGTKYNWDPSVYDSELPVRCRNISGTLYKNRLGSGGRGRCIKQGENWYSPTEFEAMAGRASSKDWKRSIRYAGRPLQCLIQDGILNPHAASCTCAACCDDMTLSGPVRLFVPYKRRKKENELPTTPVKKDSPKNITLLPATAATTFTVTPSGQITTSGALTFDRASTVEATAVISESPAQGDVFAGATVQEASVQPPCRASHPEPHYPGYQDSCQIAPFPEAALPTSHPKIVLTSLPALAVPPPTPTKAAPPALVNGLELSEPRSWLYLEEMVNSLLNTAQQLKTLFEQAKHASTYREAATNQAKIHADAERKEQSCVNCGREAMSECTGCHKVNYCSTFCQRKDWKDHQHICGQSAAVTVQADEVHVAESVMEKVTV

Chains of the proteins cited; added tags and fusions are not shown. Lines headed by an entry give the natural chain unless they say otherwise; changes in a name come on top. Residues count along the entry.
UniProt P12956: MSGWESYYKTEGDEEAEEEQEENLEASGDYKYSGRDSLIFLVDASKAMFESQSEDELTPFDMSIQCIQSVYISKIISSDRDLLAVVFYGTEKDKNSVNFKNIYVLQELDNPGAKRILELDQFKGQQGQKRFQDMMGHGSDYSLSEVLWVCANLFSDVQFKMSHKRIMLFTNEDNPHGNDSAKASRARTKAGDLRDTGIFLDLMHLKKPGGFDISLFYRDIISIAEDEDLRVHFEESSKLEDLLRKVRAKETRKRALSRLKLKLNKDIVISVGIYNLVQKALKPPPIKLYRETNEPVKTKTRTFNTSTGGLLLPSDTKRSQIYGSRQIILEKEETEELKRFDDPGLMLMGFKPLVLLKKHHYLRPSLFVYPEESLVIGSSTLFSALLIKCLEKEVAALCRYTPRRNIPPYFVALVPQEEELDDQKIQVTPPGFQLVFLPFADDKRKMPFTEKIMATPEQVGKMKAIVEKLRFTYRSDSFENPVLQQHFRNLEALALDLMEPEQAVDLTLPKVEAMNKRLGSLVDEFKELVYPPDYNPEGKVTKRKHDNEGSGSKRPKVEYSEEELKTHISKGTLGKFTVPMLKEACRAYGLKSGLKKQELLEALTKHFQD
GST-Ku70 (396–609): residues 396-609 of P12956
GST-Ku70 (550–609): residues 550-609 of P12956
UniProt P13010: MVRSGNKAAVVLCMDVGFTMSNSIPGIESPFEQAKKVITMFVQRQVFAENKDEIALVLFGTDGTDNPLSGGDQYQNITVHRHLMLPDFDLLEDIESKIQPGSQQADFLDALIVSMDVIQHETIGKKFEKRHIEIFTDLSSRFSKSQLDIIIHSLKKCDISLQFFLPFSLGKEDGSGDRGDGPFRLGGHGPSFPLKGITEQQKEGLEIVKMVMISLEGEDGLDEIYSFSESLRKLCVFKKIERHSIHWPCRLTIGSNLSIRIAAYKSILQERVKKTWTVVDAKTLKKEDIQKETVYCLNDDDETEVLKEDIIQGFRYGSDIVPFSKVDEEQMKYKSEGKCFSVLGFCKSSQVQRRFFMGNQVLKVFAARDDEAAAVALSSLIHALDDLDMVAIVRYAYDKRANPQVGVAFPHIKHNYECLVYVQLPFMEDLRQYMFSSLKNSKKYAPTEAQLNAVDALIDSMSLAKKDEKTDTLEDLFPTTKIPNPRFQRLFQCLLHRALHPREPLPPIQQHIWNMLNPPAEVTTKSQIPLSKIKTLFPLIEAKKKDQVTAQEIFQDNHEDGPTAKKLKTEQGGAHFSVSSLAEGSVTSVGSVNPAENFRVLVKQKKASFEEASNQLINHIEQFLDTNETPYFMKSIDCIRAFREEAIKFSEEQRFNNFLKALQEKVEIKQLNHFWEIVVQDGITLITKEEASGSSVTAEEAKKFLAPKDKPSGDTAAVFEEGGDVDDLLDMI
UniProt P78527: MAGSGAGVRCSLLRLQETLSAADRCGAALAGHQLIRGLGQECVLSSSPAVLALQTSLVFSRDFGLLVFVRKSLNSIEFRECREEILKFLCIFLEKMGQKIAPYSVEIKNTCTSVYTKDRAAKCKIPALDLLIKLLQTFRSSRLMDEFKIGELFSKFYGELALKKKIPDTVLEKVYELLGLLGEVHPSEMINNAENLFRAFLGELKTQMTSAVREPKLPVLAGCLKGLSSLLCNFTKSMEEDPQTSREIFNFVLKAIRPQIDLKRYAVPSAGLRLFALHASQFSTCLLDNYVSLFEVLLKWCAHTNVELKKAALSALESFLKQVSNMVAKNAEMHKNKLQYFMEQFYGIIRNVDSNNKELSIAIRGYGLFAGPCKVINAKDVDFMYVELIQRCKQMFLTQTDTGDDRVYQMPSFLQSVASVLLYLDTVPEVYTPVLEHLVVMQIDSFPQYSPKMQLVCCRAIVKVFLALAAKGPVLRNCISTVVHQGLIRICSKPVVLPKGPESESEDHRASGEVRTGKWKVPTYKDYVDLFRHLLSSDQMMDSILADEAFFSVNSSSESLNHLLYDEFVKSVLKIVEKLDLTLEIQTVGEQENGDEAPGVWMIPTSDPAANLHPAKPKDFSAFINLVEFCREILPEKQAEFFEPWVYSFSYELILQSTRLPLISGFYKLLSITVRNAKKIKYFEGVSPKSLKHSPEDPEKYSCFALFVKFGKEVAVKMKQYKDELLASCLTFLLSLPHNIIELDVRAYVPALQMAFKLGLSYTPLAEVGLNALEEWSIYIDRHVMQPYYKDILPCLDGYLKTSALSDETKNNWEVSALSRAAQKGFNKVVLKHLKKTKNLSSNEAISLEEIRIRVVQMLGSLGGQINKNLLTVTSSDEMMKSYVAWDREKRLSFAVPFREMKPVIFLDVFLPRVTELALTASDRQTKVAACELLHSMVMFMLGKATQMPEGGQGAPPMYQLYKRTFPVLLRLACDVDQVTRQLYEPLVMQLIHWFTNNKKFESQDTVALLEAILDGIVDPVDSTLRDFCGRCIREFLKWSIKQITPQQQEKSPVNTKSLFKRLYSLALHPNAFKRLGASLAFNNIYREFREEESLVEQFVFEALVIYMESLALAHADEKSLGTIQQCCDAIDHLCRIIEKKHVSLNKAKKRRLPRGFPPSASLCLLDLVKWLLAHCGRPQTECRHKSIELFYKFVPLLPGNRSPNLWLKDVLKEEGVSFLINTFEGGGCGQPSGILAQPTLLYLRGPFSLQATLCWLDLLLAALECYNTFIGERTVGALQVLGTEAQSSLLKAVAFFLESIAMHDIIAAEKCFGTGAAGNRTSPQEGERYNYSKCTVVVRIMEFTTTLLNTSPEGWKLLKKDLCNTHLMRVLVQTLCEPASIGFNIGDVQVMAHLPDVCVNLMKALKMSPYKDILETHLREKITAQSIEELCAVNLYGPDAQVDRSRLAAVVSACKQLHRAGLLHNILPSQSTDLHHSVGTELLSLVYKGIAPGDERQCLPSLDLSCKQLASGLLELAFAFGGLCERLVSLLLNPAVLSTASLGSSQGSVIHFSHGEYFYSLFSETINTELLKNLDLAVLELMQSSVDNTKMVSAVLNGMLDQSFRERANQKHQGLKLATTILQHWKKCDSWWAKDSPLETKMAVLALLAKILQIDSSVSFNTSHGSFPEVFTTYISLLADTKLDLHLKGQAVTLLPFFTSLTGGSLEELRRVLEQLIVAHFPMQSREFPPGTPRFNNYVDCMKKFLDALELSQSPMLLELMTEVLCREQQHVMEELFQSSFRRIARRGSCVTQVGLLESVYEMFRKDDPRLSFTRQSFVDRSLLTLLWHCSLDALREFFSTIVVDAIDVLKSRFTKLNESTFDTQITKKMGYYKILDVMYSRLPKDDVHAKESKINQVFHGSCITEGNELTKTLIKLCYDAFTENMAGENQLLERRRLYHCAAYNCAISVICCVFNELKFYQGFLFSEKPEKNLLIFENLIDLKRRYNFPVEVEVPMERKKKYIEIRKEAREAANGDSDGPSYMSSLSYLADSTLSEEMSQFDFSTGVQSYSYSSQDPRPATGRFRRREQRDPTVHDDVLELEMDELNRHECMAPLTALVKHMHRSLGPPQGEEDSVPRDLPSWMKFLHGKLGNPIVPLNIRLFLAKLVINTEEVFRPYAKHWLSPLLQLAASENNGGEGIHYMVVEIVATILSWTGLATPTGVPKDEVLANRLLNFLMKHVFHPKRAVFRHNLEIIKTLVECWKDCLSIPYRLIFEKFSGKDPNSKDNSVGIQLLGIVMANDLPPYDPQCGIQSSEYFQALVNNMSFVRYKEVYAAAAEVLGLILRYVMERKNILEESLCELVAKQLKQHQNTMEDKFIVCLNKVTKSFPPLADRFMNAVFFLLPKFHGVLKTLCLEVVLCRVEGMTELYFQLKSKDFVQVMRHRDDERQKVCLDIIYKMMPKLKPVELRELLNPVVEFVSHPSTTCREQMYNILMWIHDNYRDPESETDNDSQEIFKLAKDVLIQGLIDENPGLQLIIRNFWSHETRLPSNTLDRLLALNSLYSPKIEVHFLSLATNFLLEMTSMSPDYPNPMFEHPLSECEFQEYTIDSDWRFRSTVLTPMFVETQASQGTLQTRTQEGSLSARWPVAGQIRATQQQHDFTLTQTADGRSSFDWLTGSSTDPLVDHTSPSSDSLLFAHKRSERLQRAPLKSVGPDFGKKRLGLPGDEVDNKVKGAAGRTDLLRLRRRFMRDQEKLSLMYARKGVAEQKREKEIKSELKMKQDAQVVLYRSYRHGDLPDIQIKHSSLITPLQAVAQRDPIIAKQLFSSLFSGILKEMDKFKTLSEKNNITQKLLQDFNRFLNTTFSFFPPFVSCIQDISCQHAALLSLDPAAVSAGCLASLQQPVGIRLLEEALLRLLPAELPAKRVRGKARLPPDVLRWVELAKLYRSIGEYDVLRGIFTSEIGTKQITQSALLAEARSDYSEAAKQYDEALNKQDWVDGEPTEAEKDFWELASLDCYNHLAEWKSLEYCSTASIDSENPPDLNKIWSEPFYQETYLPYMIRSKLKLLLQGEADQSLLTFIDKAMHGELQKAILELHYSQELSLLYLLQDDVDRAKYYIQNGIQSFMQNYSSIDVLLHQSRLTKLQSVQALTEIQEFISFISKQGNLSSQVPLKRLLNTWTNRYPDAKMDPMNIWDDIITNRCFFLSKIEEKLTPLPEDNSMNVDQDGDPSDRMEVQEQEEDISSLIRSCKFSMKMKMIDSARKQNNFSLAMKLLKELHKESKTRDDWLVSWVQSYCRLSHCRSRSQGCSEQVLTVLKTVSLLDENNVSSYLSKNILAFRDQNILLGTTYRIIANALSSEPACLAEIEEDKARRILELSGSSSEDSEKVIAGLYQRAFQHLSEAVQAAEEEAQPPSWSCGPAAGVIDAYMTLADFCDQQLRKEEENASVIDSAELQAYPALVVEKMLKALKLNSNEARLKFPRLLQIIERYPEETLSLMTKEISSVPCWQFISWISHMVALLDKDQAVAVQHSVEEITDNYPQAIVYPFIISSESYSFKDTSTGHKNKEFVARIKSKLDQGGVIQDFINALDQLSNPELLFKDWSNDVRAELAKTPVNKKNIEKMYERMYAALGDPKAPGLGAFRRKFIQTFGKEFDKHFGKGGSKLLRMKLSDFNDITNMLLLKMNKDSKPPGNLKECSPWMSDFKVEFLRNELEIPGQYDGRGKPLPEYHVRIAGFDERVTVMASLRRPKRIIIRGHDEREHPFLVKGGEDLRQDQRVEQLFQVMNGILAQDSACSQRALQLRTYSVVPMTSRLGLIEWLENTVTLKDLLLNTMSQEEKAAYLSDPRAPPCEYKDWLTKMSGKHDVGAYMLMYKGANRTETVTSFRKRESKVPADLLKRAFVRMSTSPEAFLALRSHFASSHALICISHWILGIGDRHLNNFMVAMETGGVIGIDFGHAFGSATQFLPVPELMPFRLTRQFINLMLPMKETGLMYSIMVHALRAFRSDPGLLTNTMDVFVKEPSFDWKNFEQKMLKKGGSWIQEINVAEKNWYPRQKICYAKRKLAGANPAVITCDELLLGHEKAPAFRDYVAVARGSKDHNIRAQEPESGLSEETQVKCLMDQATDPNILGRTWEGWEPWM

[2] = target: T1, GST-DEAF1 fusion protein (human)
[3] = target: T1, GST-DEAF1 fusion protein (human); assay: pull-down; data not shown: GST-DEAF1 pull-downs with human kidney 293T/17 and monkey kidney CV1 cell lysates; banding profiles; only the target purified
[4] = target: T2, DEAF1-FLAG (in CV1 cells) (human) (UniProt O75398); assay: co-IP; CV1 cells transfected with epitope-tagged plasmids; lysates in lysis buffer P incubated with anti-FLAG beads overnight at 4°C; immunoblot with anti-HA or anti-DEAF1 antibody
T2 sequence: T1 sequence

[5] = target: GST-Ku70 (full-length Ku70) (UniProt P12956)
[6] = target: FLAG-Ku70 (in CV1 cells) (UniProt P12956); assay: co-IP; CV1 cells transfected with epitope-tagged plasmids; lysates in lysis buffer P incubated with anti-FLAG beads overnight at 4°C; immunoblot with anti-HA or anti-DEAF1 antibody
[7] = target: GST-Ku70 (full-length Ku70) (UniProt P12956); remark: listed apart in the source
[8] = target: GST-Ku80 (UniProt P13010)
[9] = target: GST-Ku70 (550–609) (UniProt P12956)
[10] = target: GST-Ku70 (full-length Ku70) (UniProt P12956); remark: listed apart in the source
[11] = target: GST-Ku70 (396–609) (UniProt P12956)

Molecule: Ku70, in vitro translated, [35S]methionine-labeled (from UniProt P12956 1-609)
binding [2]: binds

B3: DEAF1, in vitro translated, [35S]methionine-labeled (protein, UniProt O75398 1-565)
chain: T1 sequence
modifications: [35S]methionine-labeled
binding [7]: binds
binding [8]: no binding

B4: DEAF1 (167–565), in vitro translated, [35S]methionine-labeled (domain or fragment, UniProt O75398 167-565)
chain: AAPLTPGPQSPPTPLAPGQEKGGTKYNWDPSVYDSELPVRCRNISGTLYKNRLGSGGRGRCIKQGENWYSPTEFEAMAGRASSKDWKRSIRYAGRPLQCLIQDGILNPHAASCTCAACCDDMTLSGPVRLFVPYKRRKKENELPTTPVKKDSPKNITLLPATAATTFTVTPSGQITTSGALTFDRASTVEATAVISESPAQGDVFAGATVQEASVQPPCRASHPEPHYPGYQDSCQIAPFPEAALPTSHPKIVLTSLPALAVPPPTPTKAAPPALVNGLELSEPRSWLYLEEMVNSLLNTAQQLKTLFEQAKHASTYREAATNQAKIHADAERKEQSCVNCGREAMSECTGCHKVNYCSTFCQRKDWKDHQHICGQSAAVTVQADEVHVAESVMEKVTV
modifications: [35S]methionine-labeled
binding [9]: binds

B5: DEAF1 (155–326), in vitro translated, [35S]methionine-labeled (domain or fragment, UniProt O75398 155-326)
chain: GSIVETTGLKGPAAPLTPGPQSPPTPLAPGQEKGGTKYNWDPSVYDSELPVRCRNISGTLYKNRLGSGGRGRCIKQGENWYSPTEFEAMAGRASSKDWKRSIRYAGRPLQCLIQDGILNPHAASCTCAACCDDMTLSGPVRLFVPYKRRKKENELPTTPVKKDSPKNITLLP
modifications: [35S]methionine-labeled
binding [10]: binds
binding [11]: binds

The next lines start with the values.

binding [1]: binds
Molecule: DNA-PK catalytic subunit (DNA-PKcs), endogenous in PC-3 lysate (from UniProt P78527 1-4128)

binding [2]: no binding
Molecule: Ku80, in vitro translated, [35S]methionine-labeled (from UniProt P13010 1-732)

binding [3]: binds
Molecule: Ku70 (XRCC6), endogenous in human cell lysates (from UniProt P12956 1-609)

binding [4]: binds
Molecule: HA-Ku70 (in CV1 cells) (from UniProt P12956 1-609)

binding [5]: binds
B1: DEAF1 (198–326), in vitro translated (domain or fragment, UniProt O75398 198-326)
chain: VYDSELPVRCRNISGTLYKNRLGSGGRGRCIKQGENWYSPTEFEAMAGRASSKDWKRSIRYAGRPLQCLIQDGILNPHAASCTCAACCDDMTLSGPVRLFVPYKRRKKENELPTTPVKKDSPKNITLLP
modifications: [35S]methionine-labeled

binding [6]: binds
B2: DEAF1 (untagged, expressed in CV1 cells) (protein, UniProt O75398 1-565)
chain: T1 sequence
